# Some of the results follow. Each Rep nickase domain was tested in vitro on the same pool of single strands (1 h at 37 °C, 3 µM enzyme); the outer parts of the 90-letter strands are left off. Uncut reads are compared with the no-enzyme pool on a log2 scale; more negative means more cut, near 0 not cut, and no call is made. Because reads are shares of a total, they shift together, so uncut sequences can rise above 0 when many others are cut.
# Assays:
# Test in all cases: uncleaved DNA left, log2 of reads against the no-enzyme library (log2 ratio); higher = less cleavage (more negative = more Rep cleavage of the k-mer); sequences stand for … in CTCGTCCG…ACCGGAGA
# [1] = test system: T1, Rep nickase domain of Muscovy duck circovirus
# T1 sequence (Rep 1-111, printed without the tag): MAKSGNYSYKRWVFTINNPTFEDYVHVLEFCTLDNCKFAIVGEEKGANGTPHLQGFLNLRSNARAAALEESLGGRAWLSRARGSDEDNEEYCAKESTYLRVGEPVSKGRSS
# Procedure: (§1)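 A pool of 90-nt single-stranded DNAs with seven random bases just before the constant AC of the nick site (name = the seven bases) was cut by 3 µM recombinant His6-SUMO-tagged Rep nickase domain (300 nM DNA, 50 mM HEPES pH 8.0, 50 mM NaCl, 1 mM MnCl2, 1 h, 37 °C, three replicates). Uncut DNA was amplified and sequenced.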
# [2] = test system: T2, Rep nickase domain of banana bunchy top virus
# T2 sequence (Rep 1-94, printed without the tag): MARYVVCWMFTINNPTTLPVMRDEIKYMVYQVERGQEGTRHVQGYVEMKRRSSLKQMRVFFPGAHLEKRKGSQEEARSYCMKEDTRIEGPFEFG
# Procedure: as §1
# [3] = test system: T3, Rep nickase domain of cabbage leaf curl virus
# T3 sequence (Rep 1-116, printed without the tag): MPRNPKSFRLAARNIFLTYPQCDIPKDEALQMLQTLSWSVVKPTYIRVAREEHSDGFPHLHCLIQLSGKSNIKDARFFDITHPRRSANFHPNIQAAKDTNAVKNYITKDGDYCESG
# Procedure: as §1
# [4] = test system: T4, Rep nickase domain of chickpea chlorotic dwarf virus
# T4 sequence (Rep 1-124, printed without the tag): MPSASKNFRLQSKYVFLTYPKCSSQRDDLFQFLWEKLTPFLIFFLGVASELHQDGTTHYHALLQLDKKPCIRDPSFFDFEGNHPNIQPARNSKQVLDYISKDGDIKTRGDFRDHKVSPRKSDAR
# Procedure: as §1
# [5] = test system: T5, Rep nickase domain of faba bean necrotic yellows virus
# T5 sequence (Rep 1-98, printed without the tag): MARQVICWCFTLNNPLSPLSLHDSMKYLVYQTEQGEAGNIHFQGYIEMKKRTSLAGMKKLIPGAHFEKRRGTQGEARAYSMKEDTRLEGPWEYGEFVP
# Procedure: as §1
# [6] = test system: T6, Rep nickase domain of maize striate mosaic virus
# T6 sequence (Rep 1-117, printed without the tag): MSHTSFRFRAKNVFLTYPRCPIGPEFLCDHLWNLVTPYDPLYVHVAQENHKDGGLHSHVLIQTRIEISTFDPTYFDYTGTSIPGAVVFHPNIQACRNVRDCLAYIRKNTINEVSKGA
# Procedure: as §1
# [7] = test system: T7, Rep nickase domain of porcine circovirus 2
# T7 sequence (Rep 2-116, printed without the tag): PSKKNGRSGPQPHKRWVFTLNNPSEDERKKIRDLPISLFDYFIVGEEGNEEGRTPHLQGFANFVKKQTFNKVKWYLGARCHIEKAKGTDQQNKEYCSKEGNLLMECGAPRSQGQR
# Procedure: as §1
# [8] = test system: T8, Rep nickase domain of tomato yellow leaf curl virus
# T8 sequence (Rep 1-136, printed without the tag): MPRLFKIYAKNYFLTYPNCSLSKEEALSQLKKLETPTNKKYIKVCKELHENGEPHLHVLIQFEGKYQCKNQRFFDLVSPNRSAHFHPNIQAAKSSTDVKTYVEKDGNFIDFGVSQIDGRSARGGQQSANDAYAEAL
# Procedure: as §1
# [9] = test system: T9, Rep nickase domain of wheat dwarf virus
# T9 sequence (Rep 1-137, printed without the tag): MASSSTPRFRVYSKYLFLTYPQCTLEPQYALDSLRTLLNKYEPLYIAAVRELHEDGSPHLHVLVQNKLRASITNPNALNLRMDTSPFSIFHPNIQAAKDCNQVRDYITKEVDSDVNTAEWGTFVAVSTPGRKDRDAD
# Procedure: as §1
Sequence,uncleaved DNA left (log2) [1],uncleaved DNA left (log2) [2],uncleaved DNA left (log2) [3],uncleaved DNA left (log2) [4],uncleaved DNA left (log2) [5],uncleaved DNA left (log2) [6],uncleaved DNA left (log2) [7],uncleaved DNA left (log2) [8],uncleaved DNA left (log2) [9]
GCGATAC,0.0234,0.0422,0.0296,0.189,-0.0385,0.179,0.101,-0.0953,0.0135
GCTCCTA,-0.104,-0.0421,0.111,-0.0323,-0.0583,0.364,-0.173,-0.00603,-0.0817
TATCCGT,0.0678,0.0871,-0.185,-1.16,0.128,-0.996,0.13,0.054,0.112
TCACCCG,-0.0198,0.00485,-0.871,-0.644,-0.00662,-1.17,-0.302,-0.0645,-0.06
TACATCG,0.0234,-0.0762,-0.863,-0.33,0.0761,-0.975,0.0965,-0.0555,-0.122
GCAACAA,-0.0534,0.125,0.162,0.418,0.0643,0.199,0.0637,0.0951,0.129
CGAGTGT,0.123,0.0148,-0.114,0.559,-0.0461,1.35,0.035,-0.0274,0.082
TACGGGT,-0.000852,0.0171,0.179,0.729,-0.0177,1.24,0.132,0.0151,-0.00848
AATCGAG,-0.0867,0.0426,-0.182,-0.114,-0.0492,-0.925,-0.0288,-0.0675,-0.0695
CACCTTC,-0.083,-0.0365,-0.0786,-0.902,-0.0722,-0.918,-0.105,-0.206,-0.00862
TTAAAGA,0.0763,0.125,0.0749,0.0519,0.0343,-0.664,0.127,0.142,0.088
ACATCCG,0.0779,0.0498,-0.555,0.54,0.0792,-0.495,0.265,0.0732,-0.0308
GAGGCAG,0.167,0.113,0.797,1.76,0.0722,1.77,0.297,0.106,0.196
TGAACAA,0.0805,0.144,0.302,0.436,0.0273,0.315,0.177,0.171,0.211
TCTCGGA,0.0873,0.00935,0.193,0.898,0.0276,0.736,0.0402,-0.0295,0.0217
CCCAGTG,0.0573,0.0655,-0.551,-0.375,0.118,-1.12,0.107,0.114,-0.134
AACGCTG,0.00474,0.0389,0.264,1.71,-0.0145,1.81,0.191,-0.0768,-0.0555
CGGCAGC,0.0318,-0.0175,0.192,0.741,0.0924,0.678,0.00586,-0.0193,-0.0488
ACGTCTT,-1.53,-0.28,-0.292,-2.04,-0.346,-0.262,-3.07,-0.0585,-0.0414
GCCGTCA,-0.135,-0.0626,0.175,0.0541,-0.0401,0.167,0.0517,-0.0543,-0.0729
CTAGTAA,-0.075,-0.091,-0.188,-0.431,-0.0149,-0.87,0.0433,0.0781,-0.173
ATCGAGA,0.113,0.115,0.834,1.46,0.178,0.948,0.0901,0.0961,0.171
GGCGCAA,-0.0302,0.14,0.483,1.54,-0.0646,1.73,0.15,-0.0267,0.145
GACAGTA,-0.000621,0.0402,0.394,0.476,-0.00384,1.07,-0.00995,-0.0258,0.0786
CACTGCA,-0.161,-0.0637,-0.683,-1.07,-0.00394,-1.2,-2.15,0.0374,-0.195
ATCTTAC,-1.02,-0.0403,-0.548,-2.31,0.0134,-1.06,-0.651,-0.144,-0.197
GAACGCG,-0.00283,-0.0225,-0.855,-0.417,0.0858,-0.861,0.142,-0.0443,-0.0812
TCGCATC,0.0621,-0.0209,0.00109,-0.111,-0.097,-0.532,0.0235,0.081,0.126
CTATAGT,-3.27,-0.0691,-1.96,-1.65,0.014,-1.34,-3.3,0.0952,-0.297
CTACGGT,-0.028,0.0119,0.0579,-0.391,0.0279,0.828,-0.241,-0.176,-0.0931
